SMILES strings stand for the structures. Whole data set: some 110,000 compounds, median “z-score” near -0.1, cut for the highest 2% near 2. The list shows a part of the results. Calls of active or inactive are those of the source.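 How the source made its calls: active means z-score in the third read window above 3 or below -3; inactive means the rest.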

This test addresses Metabotropic glutamate receptor 8 (Rattus norvegicus) (UniProt P70579). Put plainly: mGluR8 Gi/Go-coupled signaling modulation – cell-based, rat, thallium flux, HTS, primary screen (AID 488969). The note with it: HEK293 rat mGluR8, GIRK (G protein-gated inwardly rectifying potassium channel) thallium flux, FluoZin2; at 10 µM; stronger effect = higher value; submaximal glutamate (EC20) added with thallium.
Chain of UniProt P70579 (P70579 whole entry, looked up): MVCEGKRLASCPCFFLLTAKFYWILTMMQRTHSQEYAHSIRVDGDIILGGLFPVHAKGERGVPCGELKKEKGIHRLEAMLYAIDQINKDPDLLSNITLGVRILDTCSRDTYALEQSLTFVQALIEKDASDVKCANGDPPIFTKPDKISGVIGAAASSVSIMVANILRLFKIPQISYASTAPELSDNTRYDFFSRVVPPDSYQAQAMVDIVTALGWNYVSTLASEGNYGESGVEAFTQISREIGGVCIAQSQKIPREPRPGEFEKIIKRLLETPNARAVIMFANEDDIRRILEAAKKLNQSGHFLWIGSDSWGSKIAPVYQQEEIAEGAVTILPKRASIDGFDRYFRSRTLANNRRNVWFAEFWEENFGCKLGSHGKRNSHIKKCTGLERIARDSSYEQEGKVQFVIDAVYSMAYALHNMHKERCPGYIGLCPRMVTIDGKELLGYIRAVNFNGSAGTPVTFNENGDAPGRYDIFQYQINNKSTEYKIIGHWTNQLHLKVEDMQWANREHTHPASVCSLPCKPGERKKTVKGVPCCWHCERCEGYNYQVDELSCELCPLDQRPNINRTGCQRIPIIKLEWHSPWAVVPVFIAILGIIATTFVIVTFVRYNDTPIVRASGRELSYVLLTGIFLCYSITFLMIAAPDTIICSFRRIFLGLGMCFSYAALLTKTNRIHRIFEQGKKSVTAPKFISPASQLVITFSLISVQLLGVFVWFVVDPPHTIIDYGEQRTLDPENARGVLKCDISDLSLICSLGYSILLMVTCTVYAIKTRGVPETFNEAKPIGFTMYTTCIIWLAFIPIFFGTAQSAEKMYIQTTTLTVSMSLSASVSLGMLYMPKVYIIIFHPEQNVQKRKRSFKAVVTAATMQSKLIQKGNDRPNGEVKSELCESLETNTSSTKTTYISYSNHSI
On to `O=C(NCCCCCCNC(=O)OC1CCS(=O)(=O)C1)OC1CCS(=O)(=O)C1` (centres undefined), for which the z-score is -0.259.
Regarding `O=[N+]([O-])c1ccc(/C=C/c2ccc3cccc([N+](=O)[O-])c3n2)cc1`, the z-score was -0.0714.
In turn, `CCN(CC)c1nc(OC)nc(-n2nnc(C(C)=O)c2C)n1` had a z-score of -0.577.
The figure for `CCOc1ccc(-c2nc(CSCC(=O)NC3CCCc4ccccc43)c(C)o2)cc1` (centres undefined) is 0.0515.
In the case of `CCOc1ccc(NC(=O)CSc2n[nH]c(N)n2)c([N+](=O)[O-])c1`, the z-score is -0.194.
With `Clc1ccccc1-c1nn2c(Cn3cnc4ccccc43)nnc2s1`, the z-score was -0.619.
`O=c1nc(/C=C/c2cc([N+](=O)[O-])ccc2Cl)cc(C(F)(F)F)[nH]1` had a z-score of -2.88.
`CCc1ccc(OCC(=O)NC(=S)Nc2cccc(CO)c2)c(Br)c1` showed a z-score of 1.5.
As to `CCOc1ccc(/C(O)=C2/C(=O)C(=O)N(CCOCCO)C2c2ccccc2)cc1` (centres undefined), the z-score is -0.0871.
As for `Cc1ccc(SCC2(O)CCN(S(=O)(=O)c3ccc(Cl)cc3)CC2)cc1`, the z-score was determined as 0.472.
Consider `O=C1c2ccccc2C(=O)N1CCc1nc2ccccc2c(=O)n1Cc1ccco1`, for which the z-score was -0.153.
Regarding `CCOC(=O)c1c(C)n(C)c2ccc(OC)c(NC(=O)CN3CCN(C4CCCCC4)CC3)c12`, the z-score is 0.148.
The figure for `Cc1occc1C(=O)OCC(=O)Nc1ccc(F)cc1` is 0.794.
On to `Nc1nc(SCC(=O)N2CCc3ccccc3C2)[nH]c(=O)c1-c1ccccc1`, for which the z-score is -1.33.
For `O=C(NCc1ccccc1Cl)c1ccc(Cn2cc(C(F)(F)F)ccc2=O)cc1`, the z-score was -0.285.
`COc1ccc(/C=N/Nc2nnc(-c3ccccc3)c(=O)[nH]2)cc1`: the z-score is -0.174.
`COc1ccccc1N1CCN(C(=O)c2c(-c3ccccc3Cl)noc2C)CC1`: the z-score was determined as 0.209.
As to `O=C(CSc1nc(Nc2ccccc2)nc(N2CCOCC2)n1)Nc1ccc2c(c1)OCCO2`, the z-score was -0.527.
On to `Cc1ccc(C(=O)C[n+]2cc(-c3ccccc3)n3c2CCCCC3)cc1`, for which the z-score was determined as 0.0411.
In turn, `CC/S(CC1CC1(Cl)Cl)=N\S(=O)(=O)c1ccc(C)cc1` (centres undefined) came in with a z-score of -0.695.
In turn, `Cc1cc(C)nc(N/N=C/c2cccc3ccccc23)n1` registered a z-score of -0.0683.
`COc1ccccc1NS(=O)(=O)c1cccc(NC(=O)NC2CCCCC2)c1` gave a z-score of -0.203.
The molecule `O=C(C1Cc2ccccc2CN1S(=O)(=O)c1ccc(F)cc1)N1CCOCC1` (centres undefined) gave a z-score of 0.521.
`Cc1ccc(/C=N/Nc2ccc(Cl)c(C(=O)O)c2)s1`: the z-score was 0.684.
`CC1CCN(C(=S)Nc2ccc(SC(F)F)cc2)CC1`: the z-score amounted to 0.000321.
As for `COc1ccc2nc(SCC(=O)N3CCN(c4ccc(F)cc4)CC3)c(C#N)cc2c1`, the z-score is -0.863.
To `Cc1cc(C(=O)NCc2ccco2)no1` belongs -0.0735; to `N#Cc1nc(COc2ccccc2F)oc1N1CCCCCC1`, -0.537.
`Cc1ccc(CN(c2ccc(C(=O)NCc3cccnc3)cc2)S(C)(=O)=O)cc1` yielded a z-score of 0.0278.
Take `COc1ccc(C(=O)N2CCN(C(=O)c3ccco3)CC2)cc1OC`: the z-score came out at 0.587.
To `CCOC(=O)N1CCN(C(=O)CSCC(=O)Nc2nc(-c3cccs3)cs2)CC1` belongs -0.51; to `O=c1nc2sc3ccccc3n2c(=O)n1-c1cccc(Cl)c1`, -0.296; to `CC(=O)C1C(c2ccncc2)NC(=O)NC1(O)C(F)(F)F` (centres undefined), 0.609.
`O=[N+]([O-])c1ccc(N=Cc2sc3ccccc3c2O)cc1` displayed a z-score of -0.479.
Take `Cc1ccccc1-c1nc(-c2ccc(NC(=O)c3ccc(Br)o3)cc2)no1`: the z-score was determined as 0.0114.
The figure for `CCCC(=O)N(CCc1ccc(OC)cc1)Cc1nc2ccccc2c(=O)[nH]1` is 1.57; for `O=C1C(c2ccncc2)N(CCC2=CCCCC2)C(=O)CN1C1CCCCC1` (centres undefined) it is 0.392.
`O=C(NCc1cccs1)c1ccc2c(c1)OCCO2` yielded a z-score of 0.203.
As to `CC(=O)N(CCN(C(C)=O)c1ccccc1)c1ccccc1`, the z-score came to 0.016.
Molecule `CCOC(=O)c1ccc(S(=O)(=O)N2CCNCC2)cc1` yielded a z-score of -0.353.
Molecule `S=c1[nH]nc(COc2ccccc2)n1/N=C/c1ccccn1` returned a z-score of 0.101.
Take `CC1CN(C2CC(C)(C)NC(C)(C)C2)CCC1=O` (centres undefined): the z-score was active: 3.98.
On to `Cn1cc(CC(=O)Nc2cccc(C#N)c2)c2ccccc21`, for which the z-score is -0.00945.
With `FC(F)(F)c1cccc(N2CCN(Cc3ccoc3)CC2)c1`, the z-score was 0.548.
Molecule `CCS(=O)(=O)CCSc1nc2ccccc2o1` had a z-score of -0.627.
The figure for `Cc1ccc(/C=N/NC(=O)c2c[nH]c3ccccc23)s1` is -0.00778.
The molecule `C=CCn1c(Oc2cc(C)ccc2C)nc2c1c(=O)n(C)c(=O)n2C` came in with a z-score of 0.128.
`CC1(C)CC(=O)C2=C(C1)NC(SCC(N)=O)=C(C#N)C21CCCCC1` yielded a z-score of -0.349.
With `O=C(COC(=O)c1ccccc1NC(=O)c1ccco1)Nc1ncc(Cl)cc1Cl`, the z-score is -0.0646.
As to `Cc1cc(C)c2c(n1)nn1c(C3CC3)cc(C(F)(F)F)nc21`, the z-score worked out at 0.0811.
In the case of `CN(C)C(=O)Cn1c(=O)n(C)c2ccccc21`, the z-score was determined as 0.277.
To `NC(=O)NC(=O)CSc1nc(-c2ccccc2)c(-c2ccccc2)n1CC1CCCO1` (centres undefined) belongs -0.61; to `COc1ccc(/C=N/Nc2nnc(-c3ncc[nH]3)c3ccccc23)cc1`, 0.042; to `COc1cc(NC(=O)c2ccccc2)c(OC)cc1NC(C)=O`, -0.2.
On to `O=[N+]([O-])c1cn(-c2nc(-c3ccco3)cc(C(F)(F)F)n2)cn1`, for which the z-score was 0.47.
With `O=C(N/N=C\c1ccc(COc2ccc([N+](=O)[O-])cc2)o1)c1ccc(Cl)cc1`, the z-score was -0.0513.
As for `Cc1cc(C)nc(NC2=NCCN2C(=O)NC2CCCCC2)n1`, the z-score was -1.03.
The figure for `COc1ccc(-c2cc(C(F)(F)F)c(C#N)c(SCC(=O)Nc3ccccc3C#N)n2)cc1` is -0.293.
To `CC1CCCN(S(=O)(=O)c2ccc(C(=O)Nc3nnc(-c4ccccc4Cl)o3)cc2)C1` (centres undefined) belongs active: 3.98; to `CN1C(=O)CSc2ccc(NC(=O)N3CCOCC3)cc21`, -0.0383.
Molecule `CCCCOc1ccc(C(=O)NCc2ccccn2)cc1` gave a z-score of -0.356.
In turn, `O=C(NCC1CCCC(CNC(=O)N2CCc3ccccc32)C1)N1CCc2ccccc21` (centres undefined) yielded a z-score of -0.365.
`Cc1cc(C(C)(C)C)ccc1OCCOCCN1CCCC1` came in with a z-score of 0.381.
For the molecule `CCCCc1nc(N)c(C#N)c(-c2ccco2)c1CCC`, the z-score was -0.0773.
`COc1cccc(NC(=O)CNC(=O)c2ccc(F)cc2)c1` displayed a z-score of 0.944.
To `CCC(=O)/C=C1\Sc2ccc(OC)cc2N1CCO` belongs -0.195; to `CC(C)CNC(=O)c1ccccc1NC(=O)c1ccc(CN2CCOCC2)cc1`, 0.0794; to `O=C(NC1CCCCC1)C(c1ccc2ncccc2c1)N(Cc1cccs1)C(=O)c1cccs1` (centres undefined), -2.26.
The figure for `O=C(OC1CCc2ccccc2C1=O)c1ccccc1O` (centres undefined) is -0.834; for `Cc1ccc(CNC(=O)CSCC(=O)O)cc1` it is -0.261.
Consider `CCCC(=O)Nc1cc(=O)n(C)c(=O)n1C`, for which the z-score was -0.309.
Consider `CCOc1ncccc1C(=O)OCC(=O)Nc1cc(S(=O)(=O)N2CCOCC2)ccc1Cl`, for which the z-score was -0.296.
`COC(=O)c1sccc1NS(=O)(=O)c1ccc(OC)cc1` showed a z-score of 0.51.
On to `O=C1c2ccccc2C(Nc2ccc(S(=O)(=O)N3CCCCCC3)cc2)N1c1ccccn1` (centres undefined), for which the z-score is -0.262.
`COc1ccc(CSc2nnnn2C)cc1[N+](=O)[O-]` had a z-score of -0.18.
The figure for `COc1ccc(OCCOC(=O)c2cccs2)cc1` is -0.126; for `Cc1ccc(C)c(NC(=O)CCC(=O)OC(C(=O)c2ccccc2)c2ccccc2)c1` (centres undefined) it is 0.138.
Molecule `CC(NC(N)=O)C(=O)OCc1ccc(Cl)cc1Cl` (centres undefined) had a z-score of -0.0911.
In turn, `CC(C)=C1C2CCC1C1C(=O)N(c3nc(-c4ccc(F)cc4)c(C)s3)C(=O)C21` (centres undefined) returned a z-score of -0.264.
Molecule `Cc1ccc(S(=O)(=O)N2CCOCC2)cc1C(=O)Nc1nc2ccccc2[nH]1` gave a z-score of 0.145.
Take `CCOc1cc(NS(=O)(=O)c2ccc(NC(C)=O)cc2)c(OCC)cc1NC(=O)C(C)C`: the z-score is -0.107.
To `Cc1cc(C)n(CCc2nc(-c3ccco3)cs2)n1` belongs 0.234; to `O=C(COC(=O)c1cc2ccccc2cc1O)Nc1cccnc1Cl`, -0.0274.
`NC(=O)C1(N2CCCCC2)CCN(C2CC(=O)N(Cc3cccs3)C2=O)CC1` (centres undefined) showed a z-score of -0.301.
For `Cc1nn(CC(=O)Nc2ccc(Cl)c(S(=O)(=O)N(C)C)c2)c(C)c1[N+](=O)[O-]`, the z-score is active: 4.55.
In turn, `Cc1ccccc1-n1c(SCC(=O)Nc2ccccc2)nc2nc3c(cc2c1=O)CCCC3` came in with a z-score of -1.08.
For the molecule `Cc1ccc(-c2noc(CCCN3C(=O)c4ccccc4C3=O)n2)cc1`, the z-score was -0.123.
As for `Cc1ccc(N(CC(=O)N2CC(=O)Nc3ccccc32)S(=O)(=O)c2ccc3c(c2)OCCO3)cc1`, the z-score worked out at 0.116.
`CSc1cccc(NC(=O)COc2ccccc2)c1` gave a z-score of 1.69.
On to `O=C(COC(=O)c1cccc(S(=O)(=O)N2CCc3ccccc32)c1)Nc1ncc(C(F)(F)F)cc1Cl`, for which the z-score was -0.756.
On to `COc1ccc(NC(C)=O)cc1NC(=O)CN1CCN(C2c3ccccc3-c3ccccc32)CC1`, for which the z-score is -1.67.
With `Cc1cc(C)nc(SCCn2c(N3CCCCC3)nc3c2c(=O)n(C)c(=O)n3C)n1`, the z-score was determined as 0.56.
With `Cc1cc(=O)[nH]c(SCC(=O)N2CCc3ccccc3C2)n1`, the z-score was -0.254.
`CC1(c2ccccc2)CC(C)(C)N(C(=O)C2CCCO2)c2ccccc21` (centres undefined) yielded a z-score of 0.403.
Molecule `Cc1cc(=O)oc2c(CN(CC(C)C)CC(C)C)c(O)ccc12` yielded a z-score of -0.00464.
For the molecule `Cc1[nH]c2ccc(-c3nnc(SCC(=O)NCc4ccco4)n3Cc3ccccc3)cc2c1C`, the z-score is -1.63.
In the case of `O=C(CCn1nc(-c2ccccc2)c2ccccc2c1=O)NCC1CCCO1` (centres undefined), the z-score was -0.116.
As for `COc1cc(/C(C#N)=C/c2ccccc2)c([N+](=O)[O-])cc1OC`, the z-score is -0.517.
`O=C(Nc1ccc(Br)c(Cl)c1)c1ccco1` had a z-score of -0.583.
Molecule `CCOC(=O)c1c(C)[nH]c(C=Nc2ccc(OC)cc2)c1O` yielded a z-score of -0.0113.
For `C/C(Cn1nnc2ccccc21)=N\NC(=O)c1cccc(Br)c1`, the z-score is -0.164.
For `OCc1cn(-c2ccccc2)nc1-c1ccco1`, the z-score was 0.242.
The molecule `O=C(NC1CC1)c1ccc2c3c(cccc13)CC2` yielded a z-score of -0.311.
As to `CC(C)(C)c1ccc(-c2cc(N)n[nH]2)cc1`, the z-score stood at 0.498.
To `COc1cc(C2C3=C(CC(C)(C)CC3=O)OC(N)=C2[N+](=O)[O-])ccc1O` (centres undefined) belongs 0.159; to `CCN(CC(=O)NC1CCCC1)S(=O)(=O)c1ccc(C)cc1`, -0.122.
With `COc1ccc(S(=O)(=O)N(C)CC(=O)Nc2ccc3c(c2)OCO3)cc1`, the z-score is 0.0177.
Turning to `COC(=O)c1ccc(CSc2nc3c(c(=O)n2-c2ccc(Br)cc2)SCC3)o1`, the z-score is -0.947.
As to `Cc1[nH]c2ccccc2c1C(=O)CSC(=S)N(C)C`, the z-score was 1.75.

The values above are taken from PubChem BioAssay AID488969 (Vanderbilt High Throughput Screening Facility, 2010).
